# Reference: PubChem BioAssay AID686979 (National Center for Advancing Translational Sciences (NCATS), 2013)
# The campaign covered roughly 420,000 compounds. About 50,000 (12%) were called active. Inconclusive results (about 26%) are left out. Calls come from the whole dose curve; as a rule, active = well fitted inhibition curve with a large enough effect; inconclusive = small, poorly fitted or top-dose-only effect; inactive = flat fitted curve, though single readings scatter. The entries are a selection whose mix differs from that of the whole data set. Some structures have more than one record in an assay (separate samples or runs), and their calls can disagree.
# Test: qHTS for Inhibitors of human tyrosyl-DNA phosphodiesterase 1 (TDP1): qHTS in cells in presence of CPT; note: nearly all actives have a fitted effect of over 55% in size
# Settings: chicken DT40 Tdp1-/-;hTDP1 cells + 20 nM CPT, ATP luminescence, 48 h; series mostly up to 46.2 µM; activity change, negative = growth inhibition: at the top concentration
# Outline: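 Chicken DT40 Tdp1-/- cells stably complemented with human TDP1 were seeded at 400 cells/well in medium containing 20 nM camptothecin, exposed to pin-transferred compounds, and grown at 37 °C for at least 48 hr. Viability was read as ATP luminescence.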
# % is set by controls: 0 for no effect and ±100 for the full control effect; potency is the fitted concentration of half-maximal effect.
SMILES,Potency,"activity change, negative = growth inhibition"
O=C(COc1ccccc1-c1ccccc1)N/N=C/c1ccc2ccccc2c1,active: 1.16 µM,–
O=C(c1cc(-c2ccc(F)cc2)on1)N1CCN(c2ccc(F)cc2)CC1,–,inactive: 3.72%
CC(=O)OCC1=C(C(=O)O)N2C(=O)C(NC(=O)Cc3ccccc3)C2SC1 (stereo not drawn),–,inactive: -4.8%
CCC1CN(C(=O)N2CCC(C(=O)NCc3ccccc3OC)CC2)c2cc(C)ccc2O1 (stereo not drawn),active: 16.4 µM,–
CC(=NNC(=S)N1CC2CCC(CC2)C1)c1cccc(C)n1,active: 0.0103 µM,–
c1ccc(-c2onc(-c3ccco3)c2-c2ccc3c(c2)OCO3)cc1,–,inactive: -25.9%
Cc1cc(OCC(O)CN2CCN(C)CC2)ccc1C(C)C (stereo not drawn),–,inactive: -17.3%
O=C(Nc1ccc(S(=O)(=O)N2CCCCC2)cc1)c1ccc(CN2CCc3ccccc3C2)cc1,active: 10.3 µM,–
O=C(O)CCC1(CCC(=O)O)c2ccccc2-c2ccccc21,–,inactive: 55.5%
CCOc1ccc2nc(Cl)sc2c1,–,inactive: 39.4%
C=C[C@@]1(C)CC(=O)[C@@]2(O)[C@@]3(C)[C@@H](O)CCC(C)(C)[C@@H]3[C@H](O)[C@H](OC(C)=O)[C@@]2(C)O1,–,inactive: 3.8%
COc1ccc(C(=O)Nc2ccc(Cl)cn2)cc1S(=O)(=O)N1CCCC1,–,inactive: -7.38%
COc1ccc2c(=O)c(-c3ccccc3)coc2c1,–,inactive: -23%
CC(C)C[C@@H](CN=[N+]=[N-])N1CCN(CC(C)C)CCC1=O,–,inactive: -23.6%
COc1ccc(CNC(=O)[C@@H]2CC=C[C@@H]3CCN(C4CCCCC4)C(=O)[C@@H]32)cc1,–,inactive: -23.2%
Cc1cccc(CSc2cn(CC(=O)N3CCOCC3)c3ccccc23)c1,–,inactive: -14.5%
COc1ccc(C(=O)c2ccccc2O)c(O)c1,inactive,–
CC1CC(C)CN(C(=O)C2CCN(S(=O)(=O)c3ccc4c(c3)CC(C)N4C(=O)C3CC3)CC2)C1 (stereo not drawn),active: 16.4 µM,–
COCCc1ccc(OCC(O)CNC(C)C)cc1 (stereo not drawn),inactive,–
Cc1cc(C)cc(NC(=O)Cn2nnc(C(=O)NCc3ccccc3Cl)c2N)c1,–,inactive: -22.1%
NC(=O)COC(=O)c1cccc2c1-c1ccccc1C2=O,–,inactive: 13.2%
O=C(OCCN1CCOCC1)c1cccc(F)c1,–,inactive: -0.964%
N#C/C(=C/c1ccc(Br)s1)C(=O)NCCc1c[nH]c2ccccc12,active: 23.1 µM,–
O=C1CCC(C(=O)O)N1 (stereo not drawn),–,inactive: 1.38%

SMILES,Potency,"activity change, negative = growth inhibition"
Cc1ccc(NC(=O)c2ccc(=O)n(CC(=O)Nc3c(C)cc(C)cc3C)n2)cc1,–,inactive: -2.48%
O=C(OCc1cn([C@@H]2C[C@H](c3ccccc3)N(Cc3cccs3)C[C@H]2O)nn1)c1ccccc1,–,inactive: -11.9%
CC(C)(C)CC(C)(C)N=C1Nc2ccccc2NC12C[C@H]1CCC(=O)N3CC[C@@H](C2)[C@@H]13 (stereo partly drawn),–,inactive: -2.37%
C[C@@H]1CN([C@H](C)CO)C(=O)CCCn2nncc2CO[C@@H]1CN(C)C(=O)Nc1ccc(N2CCN(C)CC2)cc1,–,inactive: -24.5%
COc1ccc(CNS(=O)(=O)c2cc3c4c(c2)CCN4C(=O)CC3)cc1,–,inactive: -20%
C=CCOc1cccc(C2/C(=C(/O)c3ccc4c(c3)CC(C)O4)C(=O)C(=O)N2CCN2CCOCC2)c1 (stereo not drawn),–,inactive: 30.4%
COC(=O)c1ccc(C)c(NC(=O)CN(c2ccc3c(c2)OCO3)S(C)(=O)=O)c1,–,inactive: 30.7%
CCCCn1c(N)c(N(CC(C)C)C(=O)c2cccc(S(=O)(=O)N3CC(C)OC(C)C3)c2)c(=O)[nH]c1=O (stereo not drawn),–,inactive: 19.3%
CCC1NC(=O)c2cc(S(N)(=O)=O)c(Cl)cc2N1 (stereo not drawn),–,inactive: -15%
C[C@H](NC(=O)[C@@H]1Cc2ccccc2CN1)C(=O)Nc1ccc2c(c1)OCCO2,–,inactive: -17.8%
CNC(C)C(=O)NC(C(=O)N1CCCC1C(=O)Nc1ccc2ncccc2c1)C(C)C (stereo not drawn),–,inactive: 11.8%
Cc1cc(C(=O)OCC(=O)NC(C)c2ccccc2)c(C)o1 (stereo not drawn),–,inactive: -0.667%
COc1ccccc1-n1c(C)cc(/C=C2/C(=N)N3C(=NC2=O)SN=C3S(C)(=O)=O)c1C,–,inactive: 4.25%
C/C(Cc1ccccc1)=N/NC(=O)CNC(=O)C(c1ccccc1)c1ccccc1,–,inactive: -7.14%
CN1CCOC(c2ccccc2)c2ccccc2C1 (stereo not drawn),inactive,–
O=C(COC(=O)c1cccs1)Nc1ccc(F)c(F)c1,–,inactive: -2.27%
O=C(c1cnc2n(c1=O)CCS2)N1CCN(C(c2ccccc2)c2ccc(Cl)cc2)CC1 (stereo not drawn),active: 11.6 µM,–
C=CCn1c(SCC(=O)c2ccccc2)nnc1-c1cc2ccccc2o1,active: 23.1 µM,–
CCOC(=O)c1c(C)[nH]c(C(=O)COC(=O)CCS(=O)(=O)c2ccc(C)cc2)c1C,–,inactive: 29.2%
O=C(/C=C/C=C/c1ccc2c(c1)OCO2)N1CCCCC1,–,inactive: 3.01%
CC1=NNC(=O)C1CCC(=O)N/N=C/C=C/c1ccccc1 (stereo not drawn),–,inactive: 39.2%
CC(=O)N1CCc2cc(S(=O)(=O)CCC(=O)N3CCN(c4ccccc4F)CC3)ccc21,–,inactive: -23%
CCOc1ccc(-n2c(C)c3c(C)nnc(C)c3c2C)cc1,active: 2.91 µM,–
O=C(CN1CCN(c2cccc(Cl)n2)CC1)N1CC(O)CO1 (stereo not drawn),–,inactive: 0.376%
